# About 660 (0.18%) of roughly 360,000 compounds were called active. This list was built around the results that the source calls inconclusive (neither active nor inactive); the mix of calls is not that of the screen. Calls follow the shape of the dose curve; as a rule, active = well fitted inhibition curve with a large enough effect; inconclusive = small, poorly fitted or top-dose-only effect; inactive = no such curve, though single readings can be large or run the other way. Where the call is inconclusive, the potency comes from a doubtful curve fit.
# Target: Rap guanine nucleotide exchange factor 4 (Homo sapiens) (UniProt Q8WZA2)
# Experiment: qHTS for Antagonist of cAMP-regulated guanine nucleotide exchange factor 2 (EPAC2): primary screen; also: nearly all actives have a fitted effect of over 45% in size
# Settings: EPAC2 GEF exchange of Rap1B-BODIPY-GDP, fluorescence; activity, negative = inhibition: at 114 µM (top of the series) unless noted
# % is scaled to controls: 0 for no effect and ±100 for the full control effect; potency is read from the fitted curve at half-maximal effect; tags tell the direction and shape of the fitted curve.
# Sequence of UniProt Q8WZA2 (Q8WZA2 whole entry, looked up): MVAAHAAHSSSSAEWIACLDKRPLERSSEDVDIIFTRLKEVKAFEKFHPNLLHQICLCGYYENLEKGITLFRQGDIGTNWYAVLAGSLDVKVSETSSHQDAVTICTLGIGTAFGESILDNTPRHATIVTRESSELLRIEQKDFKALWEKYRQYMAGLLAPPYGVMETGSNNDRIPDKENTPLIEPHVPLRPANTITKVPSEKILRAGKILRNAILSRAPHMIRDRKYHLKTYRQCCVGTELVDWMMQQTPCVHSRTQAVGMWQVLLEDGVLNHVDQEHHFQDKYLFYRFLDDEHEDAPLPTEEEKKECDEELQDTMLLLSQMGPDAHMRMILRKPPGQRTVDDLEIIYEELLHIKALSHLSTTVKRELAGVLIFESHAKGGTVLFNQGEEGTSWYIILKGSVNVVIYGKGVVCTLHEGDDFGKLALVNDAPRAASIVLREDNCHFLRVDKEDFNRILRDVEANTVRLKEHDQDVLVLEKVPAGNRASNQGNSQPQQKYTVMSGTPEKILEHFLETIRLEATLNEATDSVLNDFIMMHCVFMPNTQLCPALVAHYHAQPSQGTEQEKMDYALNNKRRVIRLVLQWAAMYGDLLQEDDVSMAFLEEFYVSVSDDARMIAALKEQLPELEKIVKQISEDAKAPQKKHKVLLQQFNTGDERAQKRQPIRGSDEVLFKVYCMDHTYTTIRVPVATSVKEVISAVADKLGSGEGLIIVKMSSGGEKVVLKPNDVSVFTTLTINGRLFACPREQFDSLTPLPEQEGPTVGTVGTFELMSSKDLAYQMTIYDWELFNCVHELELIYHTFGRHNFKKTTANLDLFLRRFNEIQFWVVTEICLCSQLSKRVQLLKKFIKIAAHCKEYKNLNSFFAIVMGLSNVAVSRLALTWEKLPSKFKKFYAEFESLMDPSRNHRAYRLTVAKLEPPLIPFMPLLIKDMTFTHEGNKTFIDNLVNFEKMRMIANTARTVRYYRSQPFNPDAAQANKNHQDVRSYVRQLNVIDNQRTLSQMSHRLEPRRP
SMILES,Potency,"activity, negative = inhibition"
CC1=CC(C)(C)N(C(=O)CCl)c2ccccc21,"inconclusive: 56.2 µM [inhibitor, partial curve]",
CC(C)c1ccc(NC(=S)N2CCN(Cc3ccccc3)CC2)cc1,"inconclusive: 79.4 µM [inhibitor, partial curve]",
CC(C)c1ccc(Nc2n[nH]c(=S)s2)cc1,"inconclusive: 79.4 µM [inhibitor, partial curve]",
CC1(C)C=Cc2c(ccc3c2OC[C@H](c2ccc(O)cc2O)C3)O1,inactive,
COC(=O)c1c(-c2ccc(C)cc2)csc1N,"inconclusive: 50.1 µM [inhibitor, partial curve]",
CCC(Oc1ccccc1)C(=O)Nc1ccsc1C(=O)OC (centres undefined),"inconclusive: 56.2 µM [inhibitor, partial curve]",
COc1ccc(-c2nc3c(C)cc(Br)cn3c2Cc2ccsc2)cc1OC,"inconclusive: 39.8 µM [inhibitor, partial curve]",
S=C(Nc1ccc2nc(-c3ccccn3)c(-c3ccccn3)nc2c1)N1CCOCC1,inactive,
CCCCCC(O)(c1ccccc1)C(CN1CCOCC1)c1ccccc1 (centres undefined),"inconclusive: 56.2 µM [inhibitor, partial curve]",
N#C/C(=C(/O)c1ccccc1F)c1nc2cc(C(F)(F)F)ccc2s1,"inconclusive: 50.1 µM [inhibitor, partial curve]",
COc1cccc(C(=O)NC(=S)Nc2ccc(N3CCCC3)cc2)c1,inactive,
CCOC(=O)C1=C(C)N=c2s/c(=C\c3cccn3C)c(=O)n2C1c1cccc(OC)c1OC (centres undefined),inactive,
COc1ccc(/C=C2\SC(=S)N(C(Cc3ccccc3)C(=O)O)C2=O)cc1 (centres undefined),"inconclusive: 79.4 µM [inhibitor, partial curve]",
CC(C)(CNC(=O)c1ccc(Br)o1)N1CCOCC1,inactive,
CCOC(=O)C1(Cc2cccc(OC)c2)CCN(CCO)CC1,inactive,
Clc1ccc(-c2nc3ccccn3c2CN2CCSCC2)cc1,"inconclusive: 100 µM [inhibitor, single point]",
N#C/C(=C\c1ccccn1)c1nc2ccccc2s1,active: 25.1 µM,
O=C(O)c1ccc(N/N=C2/CCSc3ccc(F)cc32)cc1,"inconclusive: 50.1 µM [inhibitor, partial curve]",
O=S(=O)(c1ccccc1)N1CCN=C1SCc1ccccc1,inactive,
O=S(=O)(c1ccccc1)c1nc(Nc2cccc(O)c2)sc1Cl,"inconclusive: 56.2 µM [inhibitor, partial curve]",
CCOC(=O)c1nc(C)sc1-c1ccnn1S(=O)(=O)c1cccc(Cl)c1,inactive,
CN(c1ccccc1)S(=O)(=O)c1ccc(C(=O)OCC(=O)NCc2ccco2)cc1,inactive,
CNC(=O)CSc1nc2ccccc2c(=O)n1-c1cc(OC)ccc1OC,"inconclusive: 11.2 µM [inhibitor, full curve]",

SMILES,Potency,"activity, negative = inhibition"
CCc1ccc2c(c1)NC(=O)C2(C)Cc1ccccc1C#N (centres undefined),"inconclusive: 56.2 µM [inhibitor, partial curve]",
CC1(C(=O)NS(=O)(=O)c2cccs2)CCN1C(=O)C1(c2ccc(Cl)cc2)CCC1 (centres undefined),"inconclusive: 50.1 µM [inhibitor, partial curve]",
COC(=O)c1ccc(N)c(CS(=O)(=O)c2ccc(Cl)cc2)c1,"inconclusive: 35.5 µM [inhibitor, partial curve]",
COc1ccc(CNC(=O)c2c(C)oc3c2C(=O)c2ccccc2C3=O)cc1,"inconclusive: 7.08 µM [inhibitor, full curve, poor fit]",
C/C=C\C(=O)Nc1cccc(C2=NOC3(C2)C[C@@H](C(N)=O)N(C(=O)CCCCC)C3)c1 (some centres undefined),inactive,
Cc1ccc2nc(-c3ccc(Cl)cc3)c(Cc3ccccc3C(F)(F)F)n2c1,"inconclusive: 79.4 µM [inhibitor, partial curve]",
O=C(NNC(=S)NC(=O)c1ccc(Br)cc1)c1cccc([N+](=O)[O-])c1,"inconclusive: 39.8 µM [inhibitor, single point]",
Cc1ccc(C)n1-c1nn(S(=O)(=O)c2cccc3cccnc23)c2cccc(F)c12,"inconclusive: 2.82 µM [inhibitor, full curve, poor fit]",
O=C/C=C/c1c(-c2ccccc2)cc2oc3ccccc3cc1-2,inactive,
COc1ccccc1NS(=O)(=O)c1cc(NC(=O)c2sccc2C)ccc1N1CCCC1,inactive,
Cc1ccc2c(c1)C(=O)C(=O)N2Cc1ccc(Br)cc1,"inconclusive: 89.1 µM [inhibitor, single point]",
CC1CN(c2nc3ccccc3nc2NS(=O)(=O)c2ccccc2)CC(C)O1 (centres undefined),inactive,
CCNC(=S)N(CCN(CC)CC)Cc1cc2cc3c(cc2[nH]c1=O)OCCO3,"inconclusive: 10 µM [inhibitor, partial curve]",
CN(C)/C=N/NC(=O)c1ccccc1,inactive,
CCNS(=O)(=O)c1ccc(CCC(=O)NCCC2=CCCCC2)cc1,inactive,
O=C(c1cnn2c(C(F)F)cc(-c3ccccc3)nc12)N1CCc2ccccc2C1,"inconclusive: 25.1 µM [inhibitor, full curve, poor fit]",
CCCCC(C)n1[nH]c(=O)c2c(C)cc(C)nc21 (centres undefined),"inconclusive: 28.2 µM [inhibitor, full curve, poor fit]",
C[C@@H]1CN([C@@H](C)CO)C(=O)c2cc(Br)cnc2O[C@H]1CN(C)C(=O)Nc1ccc(F)cc1,inactive,
CC(C)C1CC2=C(C(=O)OC(C)(C)O2)C(c2ccc(Cl)cc2)O1 (centres undefined),"inconclusive: 79.4 µM [inhibitor, partial curve]",
CCOc1cccc(CN2CCN(c3cccc(C(F)(F)F)c3)CC2)c1O,"inconclusive: 20 µM [inhibitor, full curve]",
O=C(NCc1ccncc1)C1Cc2c(-c3ccccc3Oc3ccccc3)ccnc2O1 (centres undefined),"inconclusive: 31.6 µM [inhibitor, partial curve]",
CC(NC(=S)NNS(=O)(=O)c1ccc(C(C)(C)C)cc1)c1ccccc1 (centres undefined),"inconclusive: 79.4 µM [inhibitor, single point]",
O=C1C=CC(=O)c2c(O)c(N3CCN(CCO)CC3)c(Cl)c(O)c21,"inconclusive: 79.4 µM [inhibitor, partial curve]",

SMILES,Potency,"activity, negative = inhibition"
Cc1ccc(C)c(S(=O)(=O)/N=C(/Nc2ccccc2)c2ccccc2)c1,inactive,
CCCCN1Cc2ccccc2Oc2cc(Br)ccc2S1(=O)=O,"inconclusive: 10 µM [inhibitor, full curve]",
CC(C)(C)c1ccc(NC(=O)CON=C(N)c2ccccc2)cc1,"inconclusive: 50.1 µM [inhibitor, partial curve]",
CCO[C@@H]1OC(C(=O)N2CCOCC2)=C[C@H](c2cn(C(C)=O)c3ccccc23)[C@H]1CCCO,"inconclusive: 44.7 µM [inhibitor, partial curve]",
Cc1ccc(NC(=O)CCNS(=O)(=O)c2ccc(Br)s2)cc1,"inconclusive: 89.1 µM [inhibitor, single point]",
CC(C)(C)OC(=O)NCCCCCNC(=O)c1[nH]cnc1C(=O)N[C@@H](Cc1ccccc1)C(=O)OCc1ccccc1,,inconclusive: -19.9% [inhibitor]
CCN(Cc1cc(=O)n2ccsc2n1)c1cccc2ccccc12,"inconclusive: 12.6 µM [inhibitor, partial curve]",
O=S(=O)(Nc1ccccc1Br)c1cccc2cccnc12,"inconclusive: 17.8 µM [inhibitor, full curve, poor fit]",
CCN(CC)c1nc(SCCOC(=O)Nc2ccccc2)nc(N(CC)CC)n1,"inconclusive: 17.8 µM [inhibitor, full curve]",
CCn1c(=O)c2c3c(sc2n2c(=S)[nH]nc12)CCC3,,inconclusive: -33.9% [inhibitor] [at 11.6 µM]
c1ccc(CN(Cc2ccccc2)c2c3c(nc4ncnn24)CCC3)cc1,"inconclusive: 50.1 µM [inhibitor, partial curve]",
CN(c1ccc(O)cc1)c1nc(-c2cccs2)cs1,"inconclusive: 50.1 µM [inhibitor, partial curve]",
CCOC1=C2[C@@H](CN(S(=O)(=O)c3ccc(C)cc3)[C@H]2c2ccccc2F)[C@H]2C(=O)NC(=O)[C@H]2C1,"inconclusive: 56.2 µM [inhibitor, partial curve]",
CCCCN(CCCC)S(=O)(=O)c1ccc(NC(=O)c2cccs2)cc1,"inconclusive: 20 µM [inhibitor, full curve]",
O=S1(=O)CCOC[C@H](c2ccccc2)N1Cc1cccc(Cl)c1,"inconclusive: 12.6 µM [inhibitor, partial curve]",
Cc1ccc(C)c(Sc2ccc(NC(=O)CCN3C(=O)NC4(CCCC4)C3=O)cc2)c1,"inconclusive: 44.7 µM [inhibitor, partial curve]",
CCOC(=O)C1=CCC(c2ccccc2)N(S(=O)(=O)c2ccccc2[N+](=O)[O-])C1 (centres undefined),inactive,
O=C(O)c1ccc(Nc2nc(-c3cccnc3)cs2)cc1O,"inconclusive: 20 µM [inhibitor, full curve]",
O=C1C(=Cc2cccs2)C(=O)c2ccccc21,inactive,
CC1(C(=O)NCc2cccc(C(F)(F)F)c2)CCN1Cc1ccc(-c2ccccc2)o1 (centres undefined),"inconclusive: 39.8 µM [inhibitor, full curve, poor fit]",
Cc1ccc(SCCNC(=S)Nc2ccccc2)cc1,inactive,
CCc1ccc(C=C2SC(=S)N(CCCC(=O)Nc3ccc(C(=O)O)cc3)C2=O)cc1,inactive,
N#Cc1ccccc1COC(=O)c1ccc2c(c1)OCO2,"inconclusive: 56.2 µM [inhibitor, partial curve]",

# Source: PubChem BioAssay AID720708 (National Center for Advancing Translational Sciences (NCATS), 2013)
